Measurements: paper PMC12136788
Some of the results follow.

B1: chr10:102404582:102404727:-|CDS|ENSG00000059915|control|control|control (ssRNA)
RNA: GGGAGUUCUACAGUCCGACGAUCAUCACUCGCAUCAAUGUAGUAGCCGCUAUGUUCUCUGCGCCCCCCUUCCCAGCUGCUGUUAGCUCCCAAAAGAAGUUCAGCCGCCCUCUCCUGCCCAGCGCUGCCACCCGCCUCUCCCAGCAACAGAGGAUUGAGCAUCA
B2: chr1:178479239:178479534:-|three_prime_utr|ENSG00000188585|control|control|control (ssRNA)
RNA: GGGAGUUCUACAGUCCGACGAUCCAGUUUCUGUUUCAUGCAAUCUUCUCUGGAUUUUGAGUAAAUUUUAAUUUUUUAAUCCCUAGUAGAACAAGAUUAGGAAGAACUCGACAUGUGCCAAAAAGCACAGACCUACAACUAACACAACAGAGGAUUGAGCAUCA
B3: chr11:65967286:65967395:+|CDS|ENSG00000175467|unk|total|mutant (ssRNA)
RNA: GGGAGUUCUACAGUCCGACGAUCGACCUUUAAAAAGACCAAGCGGAGGGUGAAGAAAAUCCGCAAGAAGGAGAAGGAGGCCGCCGUGCGGGCAGAUGACUUGCUGCCUCUCGGGGACCAGACUCAGGAUGGGGACUUUGGUUCCAACAGAGGAUUGAGCAUCA
B4: chr14:103503186:103503248:+|CDS_3pUTR|ENSG00000075413|msi1_unk|FALSE|overlapping (ssRNA)
RNA: GGGAGUUCUACAGUCCGACGAUCUGCUUCCAAAAUUGCCAAUGAGCUAAAGCUGUAACCCAGUGAUUAUGAUGUAAAUUAAGUAGCAAUUAAAGUGUUUUCCUGAACACUGAUGGAAAUGUAUAGAAUAAUAUUUAGGCAAUACAACAGAGGAUUGAGCAUCA
B5: ENSG00000109133:stop:overlap|stop_codon|ENSG00000109133|stop_codon|NA|stop_codon (ssRNA)
RNA: GGGAGUUCUACAGUCCGACGAUCUGAGAAGACUUUGUCUCCAGAGCAUUGCCUUUAUAAGCAGAUUGGCACCAACAGUUCCAUAGUUUAACAUCUAGUUAAGCUACAAAUAUAGUAUAAGCAUUAUUAGCAGCUGGUACUUCUCAACAGAGGAUUGAGCAUCA
B6: chr19:19296988:19297344:-|CDS|ENSG00000105705|control|control|control (ssRNA)
RNA: GGGAGUUCUACAGUCCGACGAUCCUCCGCAGCCACCGUGAAGAGGAAGCGGAAGAGCCGGUGGGGGCCUGAAGAGGAUAAGGUAGAGCUCCCACCUGCUGAACUGGUGCAGAGGGACGUGGAUGCCUCUCCCUCGCCUCUGUCCAACAGAGGAUUGAGCAUCA
B7: chr1:25831912:25832087:-|three_prime_utr|ENSG00000127423|control|control|control (ssRNA)
RNA: GGGAGUUCUACAGUCCGACGAUCGACUGAGUUUGCAGAGCUGAGGGUUGUCAAUUUCCUUUUCUACUGAUAUCUUCUUCCUUUAGAGCAAACUUCCUCCUUAGGACCUCAGAGAUAAGCACAGCAGGGUCUUCCUCCUUCAAUCAACAGAGGAUUGAGCAUCA
B8: chr17:39471515:39471616:+|CDS|ENSG00000167258|unk|total|mutant (ssRNA)
RNA: GGGAGUUCUACAGUCCGACGAUCUUGCCUCCAAUACCAGCUCUUCCACAGCAACCACCUCUGCCUCCUUCUCAGCCAGCAUUCCGUCAGGUUCCUGCUUCCAGUACUUCAACUUUGCCCCCUUCUACUCACUCAAAGACAUCUCAACAGAGGAUUGAGCAUCA
B9: chr17:68278117:68278284:-|CDS|ENSG00000108932|unk|total|mutant (ssRNA)
RNA: GGGAGUUCUACAGUCCGACGAUCGCUUUGUUCCAAAGCCAAUGUGUAUACUGAAGUGCCUGAUGGAGGAUGGGGCUGGGCGGCCGCUGUUUCAUUUUUCUUCGUUGAAGUCUUCACCUACGGCAUCAUCAAGACAUUUGGUGUCAACAGAGGAUUGAGCAUCA
B10: chrX:152166439:152166540:-|3pUTR|ENSG00000011677|unk|total|mutant (ssRNA)
RNA: GGGAGUUCUACAGUCCGACGAUCCACCACAAGCAGAUUCUCCCUGCCCACCGGCUGAACAAAGCUCCUAAGGGGUGUAUCAUCCGCUGCUGGUUGCCUUUUCAUCCAUCCUUUCCCCGUCCCCUGCUUCCUUGCCAUUGCUGGCAACAGAGGAUUGAGCAUCA
B11: chr5:138934237:138934351:+|3pUTR|ENSG00000044115|msi1_unk|total|mutant (ssRNA)
RNA: GGGAGUUCUACAGUCCGACGAUCUUUCCAAGAACACCGUUUAAGUUGAUUAAAAAUGCUUUCCGAAUGCAGGAGCCUACUUCCCGCUGUAUUUUUUGUAUGCUUAAAUAAAAAUAAAAAUUCAUAACCAAAGAGAAUCCCACACAACAGAGGAUUGAGCAUCA
B12: chr4:57023444:57023561:+|CDS|ENSG00000047315|unk|FALSE|unique (ssRNA)
RNA: GGGAGUUCUACAGUCCGACGAUCGAAUUGGAGAGCACCAAUAGACGCUAUACCAAGAGAGACUGUAGCACUUUUCUCAGAACUAGCGAGACGGGCAUUGUGGAUCAGGUUAUGGUAACUCUCAAUCAGGAAGGAUAUAAAUUUCAACAGAGGAUUGAGCAUCA
B13: chr17:2060671:2060772:-|3pUTR|ENSG00000070366|unk|total|mutant (ssRNA)
RNA: GGGAGUUCUACAGUCCGACGAUCCCGUGCUCUCGGGUGGCCUCCACCUGCUCCCUCUCUCCUCACUGGCCUUUCUUUCCGUCCCGCUUCCUCUUCAGGAAAUGUCCUGACUCCCCUCAGCUCCCCCUUCACCCCUCCUUGCCCCAACAGAGGAUUGAGCAUCA
B14: chr12:85803847:85803948:-|3pUTR|ENSG00000198774|unk|FALSE|unique (ssRNA)
RNA: GGGAGUUCUACAGUCCGACGAUCCCAAACCCAUGUUCAUUCACUGAGUGAGGUAUAGUGUGGGUUACAGAGAAAAUCAGUCAUAGUGUUAUUUGUUUAUGUCCUAUCUACAAAAGUUGCAAUGAUGGAAUUUGGAACCCUUCUCAACAGAGGAUUGAGCAUCA
B15: chr2:37079119:37079331:-|CDS|ENSG00000008869|control|control|control (ssRNA)
RNA: GGGAGUUCUACAGUCCGACGAUCAGUAGUUCACCUGGACCACCUACACGAAAAUUAUUAGCUAAAAAUCUCGCAGCCCUUUAUAGCAUUGGGGAUACUUUCACAGUUUUUCAGACACUUGAUAAAUGCAAUGACAUUAUCAGACAACAGAGGAUUGAGCAUCA
B16: ENSG00000124205:stop:overlap|stop_codon|ENSG00000124205|stop_codon|NA|stop_codon (ssRNA)
RNA: GGGAGUUCUACAGUCCGACGAUCCCAACAGAGGCCUGUGUCAAAGGAGGUUGAAGUCAAGGACCAACAAAGCAAGCAGGCUUUAGACCUCCACCAUCCAAAGCUCAUGCCCGGCAGUGGACUCGCCCUCGCUCCAUCUACCUGCAACAGAGGAUUGAGCAUCA
B17: chr2:216122066:216122255:+|CDS|ENSG00000079246|unk|FALSE|unique (ssRNA)
RNA: GGGAGUUCUACAGUCCGACGAUCCCAUGGGCCUUCCUUUCCACUAAAAGGAAUUACCGAACAGCAAAAAGAAGGUCUUGAGAUAGUGAAAAUGGUGAUGAUAUCUUUAGAAGGUGAAGAUGGGUUGGAUGAAAUUUAUUCAUUCAACAGAGGAUUGAGCAUCA
B18: chr12:88493871:88493972:-|3pUTR|ENSG00000049130|msi1|FALSE|unique (ssRNA)
RNA: GGGAGUUCUACAGUCCGACGAUCAAGUAUCUUGACCAUAAAAAGUCAUUGCUGUUCUUGUUUCUAAUGUAAAUAGUGUCCAUUAGUAAAAGUGAAAUUCAGUCUUAAGUAGGGUGAAUUGGAUCACCAUUUACACAAGAGAUGCAACAGAGGAUUGAGCAUCA
B19: chr19:12875797:12875908:-|3pUTR|ENSG00000105612|unk|total|mutant (ssRNA)
RNA: GGGAGUUCUACAGUCCGACGAUCUUCGAGACCAGCCUGGGCUACACCGUGAGACCACAUCUCUACCCGAACUUAAAAAAAGUCCGCCAGGCACGGUGAUAAAUGCCUGCCGUCCCAGCCACUGAAGCCAGAGGAUCGAUUGAACAACAGAGGAUUGAGCAUCA
B20: chr12:1780521:1780622:+|CDS|ENSG00000006831|msi1|FALSE|bound_elsewhere (ssRNA)
RNA: GGGAGUUCUACAGUCCGACGAUCCCCAAAUAUCUCCUUUGUGGCCCCUCUGCAAGAGAAGGUGGUCUUUGGAUUAUUUUUCUUAGGAGCCAUUCUCUGCCUUUCUUUUUCAUGGCUCUUCCACACAGUCUACUGCCACUCAGACAACAGAGGAUUGAGCAUCA
B21: chr15:93027272:93027374:+|3pUTR|ENSG00000173575|unk|FALSE|unique (ssRNA)
RNA: GGGAGUUCUACAGUCCGACGAUCCCAGGAAUCUGUGAGGAUGGUAUUCCCUGGAGUCUGGCUUUGAAAGAUUUCAUUGUUGGUAGAAAUAACAGGUUGAGAAAGAGGGAGUUAGCAUCACCUAAAACCUGCACGUGAACAAGGCAACAGAGGAUUGAGCAUCA
B22: chr2:74529670:74529771:-|5pUTR|ENSG00000115307|unk|total|mutant (ssRNA)
RNA: GGGAGUUCUACAGUCCGACGAUCUCUCCGCCGGACGCGAGUUGUGAGACGGCCCAAGGGGCCGCGGGGUAUGCUGGGACCGCCCGCCCUUCCGGCGCGCCUCAGGACUUCGGGUCCCCUCACCCCGGGCGGAUGCCCAAAGACCAACAGAGGAUUGAGCAUCA

The binders below were run against MSI1 full-length (mouse, UniProt Q61474 1-362) (assay: nsRBNS (natural sequence RNA bind-n-seq); RBNS binding buffer (assumed for nsRBNS): 25 mM Tris pH 7.5, 150 mM KCl, 3 mM MgCl2, 0.01% Triton X-100, 500 ug/ml BSA, 20 U/ml SUPERase-In, 4 C; UNK is unkempt and MSI1 is Musashi-1; names of the RNAs are library labels; protein concentration not given here; high values mean tight binding).
Chain of UniProt Q61474 (Q61474 whole entry): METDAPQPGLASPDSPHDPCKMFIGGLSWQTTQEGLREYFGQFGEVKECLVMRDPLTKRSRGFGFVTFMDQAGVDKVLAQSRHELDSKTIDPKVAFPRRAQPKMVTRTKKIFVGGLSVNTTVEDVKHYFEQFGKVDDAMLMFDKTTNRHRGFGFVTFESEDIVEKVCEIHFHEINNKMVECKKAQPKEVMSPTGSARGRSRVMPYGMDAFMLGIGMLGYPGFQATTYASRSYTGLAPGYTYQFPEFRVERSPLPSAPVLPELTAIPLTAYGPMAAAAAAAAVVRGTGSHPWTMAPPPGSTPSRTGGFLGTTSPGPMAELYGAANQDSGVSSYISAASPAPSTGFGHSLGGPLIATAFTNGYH

Binder	binding signal [enrichment R]
B1	1.1
B2	0.631
B3	0.583
B4	7.85
B5	0.513
B6	0.431
B7	0.518
B8	1.12
B9	0.432
B10	0.738
B11	0.774
B12	1.28
B13	0.853
B14	0.947
B15	5
B16	0.453
B17	0.411
B18	2.13
B19	0.397
B20	0.609
B21	0.81
B22	0.325
